# The campaign covered roughly 310,000 compounds. About 14,000 (4.5%) showed an effect of 50% or more. Effects have a minus sign here. This is one part of the list.
# Target: human ether-à-go-go-related gene (hERG) potassium channel (human, UniProt Q12809)
# Assay: primary screen, population patch clamp on CHO cells stably expressing hERG
# 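Also: peak tail current of the secondary pulse compared with the same well before compound.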
# Sequence of human ether-à-go-go-related gene (hERG) potassium channel (Q12809 whole entry, looked up): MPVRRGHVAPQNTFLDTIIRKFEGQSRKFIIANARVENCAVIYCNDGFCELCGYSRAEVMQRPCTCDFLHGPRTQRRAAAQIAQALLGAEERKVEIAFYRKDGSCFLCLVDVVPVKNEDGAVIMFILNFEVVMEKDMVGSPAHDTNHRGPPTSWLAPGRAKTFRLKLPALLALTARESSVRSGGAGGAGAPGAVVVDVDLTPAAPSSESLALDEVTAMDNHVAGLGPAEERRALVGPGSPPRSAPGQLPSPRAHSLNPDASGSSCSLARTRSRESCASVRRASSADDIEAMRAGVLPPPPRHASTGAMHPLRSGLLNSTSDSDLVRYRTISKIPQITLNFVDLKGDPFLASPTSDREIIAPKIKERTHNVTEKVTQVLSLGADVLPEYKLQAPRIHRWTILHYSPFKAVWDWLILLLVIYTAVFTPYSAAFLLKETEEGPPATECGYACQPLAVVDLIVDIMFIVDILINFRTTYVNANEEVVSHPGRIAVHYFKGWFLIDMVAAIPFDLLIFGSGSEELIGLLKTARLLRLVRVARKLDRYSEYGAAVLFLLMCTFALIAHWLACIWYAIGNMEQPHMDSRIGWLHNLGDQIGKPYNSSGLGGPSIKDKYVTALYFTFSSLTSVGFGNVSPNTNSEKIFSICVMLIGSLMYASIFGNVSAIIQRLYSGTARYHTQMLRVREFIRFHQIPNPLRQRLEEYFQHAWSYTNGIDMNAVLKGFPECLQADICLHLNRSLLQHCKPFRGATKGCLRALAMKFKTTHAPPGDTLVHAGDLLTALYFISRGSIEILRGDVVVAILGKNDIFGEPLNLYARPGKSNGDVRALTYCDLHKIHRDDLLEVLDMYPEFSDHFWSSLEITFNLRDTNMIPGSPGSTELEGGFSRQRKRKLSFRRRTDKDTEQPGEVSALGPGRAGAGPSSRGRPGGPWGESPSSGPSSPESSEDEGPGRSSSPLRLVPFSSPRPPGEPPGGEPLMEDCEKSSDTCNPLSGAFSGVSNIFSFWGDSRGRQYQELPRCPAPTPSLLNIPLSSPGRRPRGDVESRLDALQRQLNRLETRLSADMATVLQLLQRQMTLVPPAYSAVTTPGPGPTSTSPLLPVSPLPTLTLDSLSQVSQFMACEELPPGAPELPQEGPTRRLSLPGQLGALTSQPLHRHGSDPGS
row,SMILES,"hERG current change (%, negative = inhibition) at 10uM [%]"
1,COc1ccc(C(=O)Nc2cc(C)nn2-c2nc3ccccc3[nH]2)c(OC)c1,-5.95
2,COc1cc(C2Nc3cccc4cccc(c34)N2)ccc1OC(C)=O,11.2
3,O=C(CN(CCO)c1ccccc1)Nc1ccc(Cl)c(S(=O)(=O)N2CCOCC2)c1,-24.8
4,COc1cccc2c(=O)n(CC(=O)Nc3ccc(F)cc3F)ccc12,-0.258
5,O=Cc1cccn1-c1c(C(=O)O)cnn1-c1ccccc1,38.5
6,O=C(NNC(=S)NC(=O)c1cccnc1)c1ccc(F)cc1,-9.85
7,CSc1ccc(OC2CCCCC2NS(=O)(=O)c2ccc(Cl)cc2)cc1 (stereo not shown),0.762
8,Cc1cccc(C(=O)OC2CCOC2=O)c1O (stereo not shown),14.2
9,COc1ccc(C)cc1S(=O)(=O)NCCc1ccccc1,-28.3
10,O=C(CN1C(=O)NC2(CCCCC2)C1=O)Nc1cccc(Cl)c1Cl,-13.6
11,Cc1ccc[n+](CC(=O)Nc2ccc(N(C)C)cc2)c1.[Cl-],17.3
12,CCN(c1ccccc1)S(=O)(=O)c1cccc(C(=O)NCC(c2cccs2)N(C)C)c1 (stereo not shown),-48.6
13,Cc1ccc(Nc2n[nH]c(C)c2[N+](=O)[O-])cc1,10.1
14,Cc1cccc(NS(=O)(=O)c2ccc3c(c2)Cc2cc(S(=O)(=O)Nc4cccc(C)c4C)ccc2-3)c1C,0.214
15,COc1ccc(/C=C/C(=O)NC(=S)NCCc2ccc(OC)c(OC)c2)cc1,10.6
16,CN(C)CCCN(C(=O)c1ccco1)c1nc2c(F)cc(F)cc2s1.Cl,-72.2
17,CC(C)NC(=O)COC(=O)c1ccccc1C(=O)c1ccccc1,3.39
18,COc1ccc(OC)c(NC(=O)C2CCN(c3nc(C)cc(C)n3)CC2)c1,-18.4
19,CCSc1nc(-c2cccs2)nc2ccccc12,45.1
20,CC(C)N(C(=O)CSc1nc2ccccc2n1Cc1ccccc1F)C(C)C,-19.1
21,COc1ccc(OC)c(NC(=O)NC2CCCCCCC2)c1,5.1
22,COc1ccc(NC(=O)/C(=C\c2ccco2)NC(=O)c2ccco2)cc1,-11.1

row,SMILES,"hERG current change (%, negative = inhibition) at 10uM [%]"
1,NC(=S)N/N=C/c1ccc(-c2ccc(SC(F)F)cc2)o1,-9.29
2,CC(C)Oc1ccc(CCNC(=O)C2CCC(=O)N(Cc3cccc(F)c3)C2)cc1 (stereo not shown),-14.1
3,Cc1nn(C)c(C)c1CN(C)C(=O)c1nn2c(c1Br)NC(c1cccs1)CC2C(F)(F)F (stereo not shown),-20.7
4,Cc1cc(Cl)ccc1OCC(=O)OC(C)C(=O)NC(N)=O (stereo not shown),-11
5,C[N+]1(C)C2CC[C@H]1CC(OC(=O)C(CO)c1ccccc1)C2.O=[N+]([O-])O (stereo partly shown),-4.69
6,COc1ccc(N2C(=O)C3CCCN3C2c2cccs2)cc1 (stereo not shown),1.87
7,Nc1cc(=O)[nH]c(SCC(=O)NCC2CCCO2)n1 (stereo not shown),1.45
8,Cc1cccc(C)c1OCc1cc(C(=O)N2CC3C[C@@H]4CC2C[C@H](C3)C4)no1,-2.85
9,COc1cc(CN2CCN(C(=O)CC(C)C)CC2)cc(OC)c1OC,-23
10,Cc1cccc(C(=O)NNC(=O)c2ccc(Br)cc2)c1,4.62
11,O=C(Nc1cnccn1)c1cccnc1,3.24
12,CC(C)(C)C1CCc2sc(-c3nnc(CCl)o3)cc2C1 (stereo not shown),10.8
13,COc1ccccc1N1CCN(C(=O)c2cc(=O)c3c(C)cc(C)cc3o2)CC1,22.5
14,Cc1ccn2cc(CSc3ccccc3N)nc2c1,-29.1
15,CC(C)[C@@H](C(=O)NCC1CCC(C(=O)O)CC1)n1nnc2ccccc2c1=O (stereo partly shown),19.1
16,CCOC(=O)c1ccc(NC(=O)COc2ccc(S(=O)(=O)NC(C)C)cc2)cc1,4.8
17,CCCCCc1c(C)nc(N2CCN(Cc3ccc4c(c3)OCO4)CC2)[nH]c1=O,11.7
18,CNCc1c(OCc2ccccc2)ccc2ccccc12.Cl,-34.1
19,CCN(CC)C(=O)CSc1nc2cccnc2n1-c1ccccc1OC,-0.945
20,Cc1ccccc1-c1nc(CS(=O)CC(=O)NCc2ccccc2)c(C)o1 (stereo not shown),-21
21,COc1ccc(N2CCN(C(=O)CCc3ccccc3OC)CC2)cc1,-17
22,COc1ccccc1OCC(=O)Nc1ccc2c(c1)C(=O)N(CC1CCCO1)C2=O (stereo not shown),-19.3

row,SMILES,"hERG current change (%, negative = inhibition) at 10uM [%]"
1,Cc1nnc(SCc2ccon2)n1-c1ccccc1,15.6
2,CCCn1c(O)c(N=NC(=O)CNC(=O)c2ccncc2)c2ccccc21,-12.6
3,O=C(COC(=O)CN1C(=O)NC2(CCCC2)C1=O)Nc1ccccc1C(F)(F)F,7.69
4,Br.Cn1ccnc1SCC(=O)c1ccc(O)cc1,17.1
5,Cc1ccc(C)c(NC(=O)CN(C)C(=O)c2cc(-c3cccs3)nn2-c2ccccc2)c1,-11
6,CSc1ccccc1C(=O)NCc1ccc2c(c1)OCO2,-17.2
7,CNC(=O)COC(=O)C1CCN(S(=O)(=O)c2ccc3c(c2)OCCO3)CC1,11.7
8,CCOc1ccc(Cl)cc1/C=N/NC(N)=O,-22.2
9,C=CCN1c2ccc(Br)cc2C(=O)CS1(=O)=O,-2.52
10,O=C(O)C(=O)O.c1ccc(COc2ccc(OCCN3CCCC3)cc2)cc1,-60.3
11,CN(C)CCCNC(=O)c1cc(C(=O)C2CCCCC2)c[nH]1,-3.99
12,Cc1ccc(NC(=O)COc2cccc3c2OC(C)(C)C3)c(O)c1,-18.9
13,CCN(CC)CCNC(=O)Cc1nn(CC)c(=O)c2ccccc12.Cl,-13.3
14,Cc1ccc(S(=O)(=O)Nc2ccccc2F)cc1C(=O)N1CCN(c2ccccc2O)CC1,-22.5
15,CCC(C)[C@H]1CN=C(N)N1CCc1cc(C(F)(F)F)cc(C(F)(F)F)c1 (stereo partly shown),-10.4
16,O=C(O)c1ccc(/C=N/Nc2nnnn2-c2ccccc2)cc1,14.4
17,O=C(Nc1ccccc1C(=O)O)/C(=C/c1ccc([N+](=O)[O-])cc1)NC(=O)c1ccc(Br)o1,24.4
18,O=C(CCc1nc2ccccc2s1)NC1CCOC1=O (stereo not shown),13.7
19,C/C(CC(=O)Nc1cc(C)ccn1)=N\NC(=O)c1cccc(C)c1O,7.55
20,CCN1C=C(Cc2ccccc2C)C2=C(C1)C(c1ccccc1C)C(C#N)=C(N)O2.CCO (stereo not shown),0.285
21,Cc1ccc(C(=O)NC(=S)NCc2ccccc2)cc1,7.15
22,Cc1nnc(NC(=O)CSc2nc3c(c(=O)n2CCc2ccccc2)SC(C)C3)s1 (stereo not shown),14.2

row,SMILES,"hERG current change (%, negative = inhibition) at 10uM [%]"
1,COc1cccc(C(=O)NCC2CCCN(C3CCCCC3)C2)c1OC (stereo not shown),6.55
2,Cc1ccc(S(=O)(=O)Nc2ncnc3sccc23)cc1C,5.42
3,COc1ccc(N/N=C(\C#N)C(=N)N2CCOCC2)cc1,11.4
4,O=C(Nc1nccs1)c1cccc(NC(=O)C(F)(F)F)c1,-5.07
5,Cc1ccc(C(=O)Nc2cccc(C(F)(F)F)c2)cc1Nc1ncnc2nc[nH]c12,-60.2
6,OC[C@@H]1CCCN1Cc1cn(-c2ccccc2)nc1-c1ccc2c(c1)OCO2,-24.2
7,Cc1cc(C)c2[nH]c(=O)c(C(c3nnnn3C(C)(C)C)N(Cc3ccco3)CC3CCCO3)cc2c1 (stereo not shown),10.2
8,O=C(CN1CCCC1)N1CCCc2c1c(=O)oc1ccc(OCc3ccccc3)cc21,-65.6
9,COc1ccc(S(=O)(=O)N2CCc3ccccc3C2)cc1C(=O)O,10.2
10,COc1ccc(-c2nc3ccc(C(=O)N4CCC5(CC4)OCCO5)cc3nc2-c2ccc(OC)cc2)cc1,-1.35
11,CCOC(=O)N1CCN(C(=O)CS(=O)(=O)Cc2nc(-c3ccccc3F)oc2C)CC1,-13.6
12,Cc1ncoc1C(=O)N1CCCC(C(=O)c2cccc(C(F)(F)F)c2)C1 (stereo not shown),1.98
13,COc1ccc(OC2C(=O)N(Cc3ccc(F)cc3)C2c2cc(OC)c(OC)c(OC)c2)cc1 (stereo not shown),-20.1
14,O=C(O)/C=C/C(=O)Nc1ccc(F)cc1F,9.29
15,O=C1CCc2cc(S(=O)(=O)NCc3ccc(Cl)cc3)cc3c2N1CC3,-41
16,FC(F)(F)c1cccc(Nc2nc(N3CCCC3)nc(N3CCCC3)n2)c1,23.7
17,CCc1ccccc1N(CC(=O)N1CCN(c2ccccc2F)CC1)S(C)(=O)=O,0.701
18,O=C1N(c2ccccc2)c2ccccc2C1(Cc1ccncc1)Cc1ccncc1,-13.5
19,C/C(CCc1ccccc1)=N\NC(=O)C(=O)Nc1cccc(Cl)c1,16.1
20,O=C(c1ccc(Cl)cc1)C1CCCN(Cc2cccc3cnccc23)C1 (stereo not shown),-44.8
21,CCNC(=S)N1CCN(CC(=O)Nc2ccc(OC)cc2)CC1,-34.3
22,CCN(C(=O)c1cc(Cl)ccc1Cl)C1CCS(=O)(=O)C1 (stereo not shown),-13.8

# Reference: paper PMC4336329 (PLoS ONE, 2015)
